B1: chr2:176131361:176131462:+|CDS|ENSG00000175879|unk|total|mutant (ssRNA)
RNA: GGGAGUUCUACAGUCCGACGAUCGGAAUUUCUUUUUAACCCCUAUCUGACCAGGAAAAGAAGAAUCGAGGUUUCCCACGCCCCCGCCCUCACCGAGAGACAGGUAAAAAUCUGGUUCCAGAACAGGAGAAUGAAAUGGAAAAACAACAGAGGAUUGAGCAUCA
B2: ENSG00000107863:be:win_5701|CDS|ENSG00000107863|bound_else_gene|NA|bound_elsewhere_windowed (ssRNA)
RNA: GGGAGUUCUACAGUCCGACGAUCAGCACCUUGGCUUCAACAAACAGGCCCCUUCUUUCCAUACCACCACAGUCACCUGACCAAAUAAACGGAGAAAGCUUCCAGAACGUGAGCAAAAAUGCUAGUUCUGCAGCGAAUGCCCAACAACAGAGGAUUGAGCAUCA
B3: ENSG00000107863:be:win_1451|CDS|ENSG00000107863|bound_else_gene|NA|bound_elsewhere_windowed (ssRNA)
RNA: GGGAGUUCUACAGUCCGACGAUCCAUCUGUUAGUUUUAGUAAUCAUAGAACUCGUUCAUGGGAUUAUAUUGAGGGACAGGAUGAAACCUUAGAAAAUGUCAAUUCUGGAACUCCAAUACCUGAUUCCAAUGGAGAGAAAAAACCAACAGAGGAUUGAGCAUCA
B4: chr3:168010103:168010202:-|3pUTR|ENSG00000173905|msi1_unk|FALSE|overlapping (ssRNA)
RNA: GGGAGUUCUACAGUCCGACGAUCGCUCAAACAUAAAUCUGCCUACUGAACUCUAGGAUAUUUAAUUACAAAAAUUAAGAACUUAGACUUUUUUAAAACUUUUGUAUUAGAAAUGCGCAUACAUUUAUAUGAAUAUAUUUUGAUCAACAGAGGAUUGAGCAUCA
B5: chr15:69268886:69268987:+|CDS|ENSG00000138604|unk|FALSE|bound_elsewhere (ssRNA)
RNA: GGGAGUUCUACAGUCCGACGAUCGGAGUUAAAGCUGUGUUUAUGAAUAAACAUGACUGGUAUGAAGAAUAUCCAACCACACCUAGCUCUUUUGUUUUAAAUGGCUUUAUGUAUUCUUUAAUUGGGCUGUAUGACUUAAAAGAACAACAGAGGAUUGAGCAUCA
B6: chr5:133076644:133076819:+|CDS|ENSG00000170606|unk|total|mutant (ssRNA)
RNA: GGGAGUUCUACAGUCCGACGAUCAAAAUUUGAUGAAGUGUCCGUAAAUCACUUCUGUGAAGAAUUUGGGAAGAAAUACAAGCCCGACAUUAAGUCCAAAAUCCGUGCAUUAUUACGACUCUCUCAGGAGUGUGAGAAACUCAACAACAGAGGAUUGAGCAUCA
B7: chr9:99150529:99150630:+|3pUTR|ENSG00000106799|msi1|total|mutant (ssRNA)
RNA: GGGAGUUCUACAGUCCGACGAUCCAUUUGUUAUGUAUGCCGGAGUAAACGUUCGGUGGAUCCUCUGUCUUUGUAACUGAGGUCCGAGCCCGUGUGGUUUUGAGGUCUCACUACACUUUGAGGAAGGCAGCUUUUAAUUCAGUGCAACAGAGGAUUGAGCAUCA
B8: chr5:113019263:113019364:+|3pUTR|ENSG00000172795|msi1|total|mutant (ssRNA)
RNA: GGGAGUUCUACAGUCCGACGAUCCUCAACUGUGAAUGAAAUUCCGAAAGAUAAUUCUUCAGCAGUUGGUUGAUCCGAUGGGUCCGUGCUUUUGGAAUAUAUAACAGCCGACUUGUAUUCUUUAUGCACUAUACAUAUGAUACGCAACAGAGGAUUGAGCAUCA
B9: chr5:180576808:180576909:+|3pUTR|ENSG00000113300|unk|total|mutant (ssRNA)
RNA: GGGAGUUCUACAGUCCGACGAUCUAUUUUCCGUGUCCUAAAUAAUUUUCAAUAAUCUAUAAUCCCUAAAAUGCAAUAAAAACCCGUAUGUUUUCACGGUGUAUAUUUUUUUUCAAAAAUUCUGUAACAAAUAUAUUUAAUGUGCAACAGAGGAUUGAGCAUCA
B10: chr2:224511460:224511569:-|CDS|ENSG00000036257|unk|total|mutant (ssRNA)
RNA: GGGAGUUCUACAGUCCGACGAUCGAAAGCCAGAAAUUUUCCGCAGAAAACCGUGCUUCAGUAUAUAUAAAGAAAGCCGAAGCCCGAAUUAAUGAAGAAACCGAACGAGUGAUGCACUGCCUUGACAAAUCAACGGAAGAACCACAACAGAGGAUUGAGCAUCA
B11: chr2:151248206:151248307:-|3pUTR|ENSG00000184898|msi1|total|mutant (ssRNA)
RNA: GGGAGUUCUACAGUCCGACGAUCUUUUUUUAAAGCAAAGAUUAAAUUCCCAUGUAAAACCUUCCUCCCUAUACAAAAAAGAACCGCAGCAUUUUUAUCUUCAAUGACAAAGAAUUGAGUCCAAGAAAAUACUGUAUAAACCUUCAACAGAGGAUUGAGCAUCA
B12: chr14:70725571:70725672:-|3pUTR|ENSG00000006432|unk|FALSE|unique (ssRNA)
RNA: GGGAGUUCUACAGUCCGACGAUCUAUUGUUAGAAACGCAUUACCAAAUGCAUCUCUUCUGUCGGAUCAGCGUAUUCCUAGAUUAGGAAUUCAAAUUAAUGAAAAUUCACAUAUGAAAGGAAAAUCCAUUGCUAUUUCUGGAGACAACAGAGGAUUGAGCAUCA
B13: chr1:229660051:229660152:+|3pUTR|ENSG00000135763|msi1|FALSE|bound_elsewhere (ssRNA)
RNA: GGGAGUUCUACAGUCCGACGAUCCUCAUUCAUAGUCUCAGUUACCCAGAUAACCUCGGUUGUCACCUUGGAGUAUCUUGUUGUAGUCCCUUUACUAUGUGUAUGUAUAUAGAUGUGCAUAUAAAUAUAUAUAGUAGCUAAAUUCAACAGAGGAUUGAGCAUCA
B14: chr15:52550141:52550321:-|3pUTR|ENSG00000128989|msi1|FALSE|unique (ssRNA)
RNA: GGGAGUUCUACAGUCCGACGAUCAGAUGUCACUUUAGUAAAAUACCAAUUUAGUUUUACUUGUGGCUUAUCUAGUUAGAACUUAGCAGACUUUACUGGGACAAGUUUACUGCUCUUGUAGGAGCUCCUCUCACAAGUAGUUGUCAACAGAGGAUUGAGCAUCA

The list shows a part of the results.

The target of this experiment is MSI1 full-length (mouse, UniProt Q61474 1-362). The experiment is described as follows: nsRBNS (natural sequence RNA bind-n-seq); RBNS binding buffer (assumed for nsRBNS): 25 mM Tris pH 7.5, 150 mM KCl, 3 mM MgCl2, 0.01% Triton X-100, 500 ug/ml BSA, 20 U/ml SUPERase-In, 4 C; UNK is unkempt and MSI1 is Musashi-1; names of the RNAs are library labels; protein concentration not given here; high values mean tight binding.
Chain of UniProt Q61474 (Q61474 whole entry): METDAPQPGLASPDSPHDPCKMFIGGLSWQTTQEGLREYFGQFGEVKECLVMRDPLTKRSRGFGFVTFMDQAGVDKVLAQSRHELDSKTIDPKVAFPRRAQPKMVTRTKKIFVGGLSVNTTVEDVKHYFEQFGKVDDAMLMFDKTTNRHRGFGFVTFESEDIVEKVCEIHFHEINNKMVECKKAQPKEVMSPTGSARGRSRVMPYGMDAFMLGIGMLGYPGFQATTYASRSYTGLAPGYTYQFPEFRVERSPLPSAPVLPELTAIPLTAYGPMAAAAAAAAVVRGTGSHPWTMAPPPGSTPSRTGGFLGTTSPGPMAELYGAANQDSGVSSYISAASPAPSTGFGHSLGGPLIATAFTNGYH
Molecule B1 came in with a binding signal of 0.493 enrichment R.
As for B2, the binding signal worked out at 0.455 enrichment R.
To B3 belongs 6.23 enrichment R.
The result for B4 reads 7.14 enrichment R; that for B5, 0.402 enrichment R.
The result for B6 reads 0.162 enrichment R; that for B7, 0.334 enrichment R; that for B8, 0.235 enrichment R.
With B9, the binding signal was determined as 6.27 enrichment R.
Regarding B10, the binding signal came to 0.432 enrichment R.
To B11 belongs 0.434 enrichment R; to B12, 1.04 enrichment R; to B13, 3.57 enrichment R.
To B14 belongs 3.47 enrichment R.

For the origin of these results see article PMC12136788.
